Data taken from PubChem BioAssay AID1452 (National Center for Advancing Translational Sciences (NCATS), 2008).
The whole screen tested about 150,000 compounds, of which about 190 (0.13%) were called active. About 2% were inconclusive and are not listed. Calls follow the shape of the dose curve; as a rule, active = well fitted inhibition curve with a large enough effect; inconclusive = small, poorly fitted or top-dose-only effect; inactive = flat fitted curve, though single readings scatter. The entries are a selection whose mix differs from that of the whole data set.

target: Polyunsaturated fatty acid lipoxygenase ALOX12 (Homo sapiens) (UniProt P18054); test: qHTS Assay for Inhibitors of 12-hLO (12-human lipoxygenase); settings: purified 12-hLO, xylenol orange hydroperoxide absorbance; series mostly up to 57.1 µM; activity change, negative = inhibition: at the top concentration; also: nearly all actives have a fitted effect of over 55% in size
From the text: Assay Provider: Holman, T.R., University of California, Santa Cruz Screening Center PI: Austin, C.P. Screening Center: NIH Chemical Genomics Center [NCGC] Human lipoxygenase 12hLO is a member of the closely related lipoxygenase family of enzymes which catalyze the site-specific oxidation of arachidonic acid to various hormone precursor molecules and as such is a candidate for drug development in a variety of disease areas, such as cancer and inflammation. Inhibition of 12hLO activity was screened by utilizing arachidonic acid as a substrate. The extent of hydroperoxide product formation was measured by a secondary chromogenic reaction in which xylenol orange (XO, Sigma-Aldrich, cat. number 39,818-7) reacts with the ferric ions produced from the reaction between the hydroperoxide and ferrous ions. The Fe(III)-XO complex is characterized with red-shifted absorbance at 560 nm. A purified preparation of human 12hLO was supplied by Professor Ted Holman, University of California, Santa Cruz.
Assay Protocol: Buffer: 25 mM Hepes pH 7.0, 0.01% Triton X-100. Reagents/Controls: Buffer in columns 3 and 4 as negative control (no enzyme). Substrate solution: 40 uM arachidonic acid (Sigma-Aldrich, St. Louis, MO) final concentration dispensed throughout the plate. Enzyme: 150 nM 12hLO final concentration in columns 1, 2, 5-48. Column 1 is neutral (100% activity). Column 2 contained pin-transferred titration of NDGA (nordihidroguaiaretic acid, Sigma-Aldrich, N 5023, top concentration 20 mM in DMSO, then 1:3 dilution in duplicate). (Dilution factor: 23 nL into 4 uL.) Chromogenic detection reagent (divalent iron/xylenol orange, Fe-XO): 200 uM xylenol orange plus 300 uM ferrous ammonium sulfate prepared freshly in 50 mM sulfuric acid. Assay Steps: Three uL of enzyme were dispensed to 1536-well Greiner black clear bottom plates. Compounds and controls (23 nL) were transferred via Kalypsys PinTool. The plates were incubated for 15 min at room temperature, and then 1 uL of substrate solution was added to start the reaction. After room temperature incubation for 30 minutes, 4 uL of Fe-XO solution was added to each well and the plates were incubated for 30 min. The absorbance at 405 and 573 nm were measured using ViewLux (Perkin-Elmer) High-throughput CCD imager and absorbance protocol settings. The 573-to-405 absorbance ratio was used to compute reaction progress.
% is scaled to controls: 0 for no effect and ±100 for the full control effect; potency is read from the fitted curve at half-maximal effect.

Chain of UniProt P18054 (P18054 whole entry, looked up): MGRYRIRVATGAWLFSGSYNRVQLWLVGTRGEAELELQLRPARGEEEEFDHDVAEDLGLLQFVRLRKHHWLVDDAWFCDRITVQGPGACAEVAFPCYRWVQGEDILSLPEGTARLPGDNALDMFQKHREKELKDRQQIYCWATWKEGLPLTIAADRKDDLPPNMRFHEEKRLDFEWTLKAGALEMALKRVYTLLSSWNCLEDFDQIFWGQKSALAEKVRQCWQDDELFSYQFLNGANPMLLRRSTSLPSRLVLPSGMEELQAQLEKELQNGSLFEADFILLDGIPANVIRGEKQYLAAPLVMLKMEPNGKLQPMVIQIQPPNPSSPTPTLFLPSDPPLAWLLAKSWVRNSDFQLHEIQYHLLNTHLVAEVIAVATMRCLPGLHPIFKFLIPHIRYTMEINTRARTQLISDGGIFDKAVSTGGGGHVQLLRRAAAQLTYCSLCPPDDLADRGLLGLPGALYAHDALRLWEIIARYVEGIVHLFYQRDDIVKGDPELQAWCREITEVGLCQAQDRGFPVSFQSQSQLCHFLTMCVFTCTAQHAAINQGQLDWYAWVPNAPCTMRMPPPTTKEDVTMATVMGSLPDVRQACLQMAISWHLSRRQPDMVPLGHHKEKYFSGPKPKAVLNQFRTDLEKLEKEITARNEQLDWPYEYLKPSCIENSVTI

Compound | Potency | activity change, negative = inhibition
Oc1ccc(-c2nc(-c3ccc(O)c(O)c3)cs2)cc1 | active: 5.01 µM | –
O=C(NC1CCCCC1)C1CC(=O)N(c2ccc(Cl)cc2)C1 (stereo unspecified) | – | inactive: -2.2%
CC[C@@H]1Cc2cc(O)ccc2C2=C1c1ccc(O)cc1C[C@H]2CC | – | inactive: -24.1%
Cc1nc(N=Nc2cc(S(=O)(=O)O)c3cc([N+](=O)[O-])cc(S(=O)(=O)O)c3c2)c(COP(=O)(O)O)c(C=O)c1O | – | inactive: -8.17%
CCN(CC)CCN1C(=O)c2ccccc2NC1c1ccccc1F (stereo unspecified) | – | inactive: 31%
CC(=O)C1=C(O)C(=O)N(Cc2ccco2)C1c1ccc(F)cc1 (stereo unspecified) | – | inactive: 31.7%
Cc1ccc(NC(=S)/N=C(\N)Nc2nc(C)c3ccccc3n2)cc1C | active: 5.62 µM | –
Cc1ccc(N2C(=O)/C(=C\c3ccco3)SC2=S)cc1 | active: 7.94 µM | –
O=c1[nH][nH]c(C(F)(F)F)c1C=NCc1cccc(Cl)c1 | – | inactive: 31.3%
CCOC(=O)C(C)Oc1ccccc1C1NC(=O)NC(C)=C1C(=O)Nc1ccc(C)c(C)c1 (stereo unspecified) | – | inactive: 17%
N[C@H](Cc1cc(I)c(Oc2ccc(O)c(I)c2)c(I)c1)C(=O)O | – | inactive: -6.18% [at 25.6 µM]
O=c1c(C=NCCCn2ccnc2)c(-c2ccccc2)[nH]n1-c1nc2ccccc2s1 | – | inactive: -5.02%
CN1CCC[C@H]1c1cccnc1 | – | inactive: 1.82%
COc1ccc(/C=C\C(=O)Nc2ccccc2C(=O)O)cc1OC | – | inactive: -4.09%
CCOc1nc(-c2ccc(C)cc2)ccc1-c1noc(-c2cccnc2)n1 | – | inactive: 44%
CC(C)N(CCC(=O)c1ccc2ccccc2c1)Cc1ccccc1 | – | inactive: -25%
Cc1ccc(C2=N/C(=C/c3cccs3)C(=O)N2Nc2ccccc2)cc1 | – | inactive: -18%
O=c1[nH]c(=O)n([C@@H]2C[C@H](O)[C@H](CO)O2)cc1C(F)(F)F | – | inactive: -5.6% [at 25.6 µM]
O=c1c2ccccc2sn1-c1ccccc1 | active: 12.6 µM | –

Compound | Potency | activity change, negative = inhibition
Cc1ccccc1C(=O)/C(C#N)=N/Nc1c(C)n(C)n(-c2ccccc2)c1=O | – | inactive: -17.9%
CSCC[C@H](NC(=O)c1ccc(Cl)c(S(=O)(=O)N2CCCC2)c1)c1nc2ccccc2[nH]1 | active: 17.8 µM | –
NC[C@H]1O[C@@H](n2cnc3c(=O)[nH]c(N)nc32)[C@@H](O)[C@@H]1O | – | inactive: -7.58% [at 11.4 µM]
CC(C)CN(CC(C)C)C(=O)C12CCC(C)(C(=O)O1)C2(C)C (stereo unspecified) | – | inactive: 30.2%
CN(Cc1cnc2nc(N)nc(N)c2n1)c1ccc(C(=O)NC(CCC(=O)O)C(=O)O)cc1 (stereo unspecified) | – | inactive: 0.867%
Cc1ccc(S(=O)(=O)c2cc3c(=O)n4ccccc4nc3n(CC3CCCO3)c2=N)cc1C (stereo unspecified) | – | inactive: 35.8%
Nc1nc(N)c2nc(-c3ccccc3)c(N)nc2n1 | inactive | –
N[C@@H](Cc1ccc(O)c(O)c1)C(=O)O | inactive | –
CC1=C(C(=O)Nc2ccccc2)C(c2ccc3c(c2)OCO3)C2=C(CCCC2=O)N1 (stereo unspecified) | – | inactive: 33.1%
O=C(c1ccc(F)cc1)C1CCN(CCn2c(=O)[nH]c3ccccc3c2=O)CC1 | inactive | –
CCN(CC)C(C)CN1c2ccccc2Sc2ccccc21 (stereo unspecified) | active: 12.6 µM | –
O=C(O)C1=CC(=C(c2ccc(O)c(C(=O)O)c2)c2ccc(O)c(C(=O)O)c2)C=CC1=O | – | inactive: -13.1%
CCCn1c2c(c(O)c(C(=O)NCCCN(CC)CC)c1=O)CCCC2 | – | inactive: 33%
COc1cccc(N(C(=O)CS(=O)CC(=O)Nc2ccc(F)cc2)C(C(=O)NC2CCCCC2)c2cccs2)c1 (stereo unspecified) | – | inactive: 11.6%
CCC(CO)NCc1ccc(OC2CCCC2)cc1 (stereo unspecified) | – | inactive: 35.4%
Cc1ccc(S(=O)(=O)N2CCC(C(=O)NCC3CCCO3)CC2)cc1 (stereo unspecified) | – | inactive: -8.94%
COc1cc([C@H]2Oc3cc([C@H]4Oc5cc(O)cc(O)c5C(=O)[C@@H]4O)ccc3O[C@@H]2CO)ccc1O | – | inactive: 4.96%
CNCC(O)c1ccc(O)c(O)c1 (stereo unspecified) | – | inactive: -2.37%
Cn1c2ccccc2c2nnc(SCc3ccc4nonc4c3)nc21 | – | inactive: 36.5%

Compound | Potency | activity change, negative = inhibition
O=C(O)C1=CCCN(CCON=C(c2ccccc2)c2ccccc2)C1 | – | inactive: -1.23%
N#CC1=C2SCN(c3ccccc3)CN2C(=O)CC1c1c(Cl)cccc1Cl (stereo unspecified) | active: 28.2 µM | –
CN1Cc2c(N)cccc2C(c2ccccc2)C1 (stereo unspecified) | inactive | –
CN(C)c1ccc(C(=C2C=CC(=[N+](C)C)C=C2)c2ccc(N(C)C)cc2)cc1 | – | inactive: -27.8%
CN(Cc1cnc2nc(N)nc(N)c2n1)c1ccc(C(=O)N[C@@H](CCC(=O)O)C(=O)O)cc1 | – | inactive: 53.4%
COC(=O)c1ccc(C2C(Oc3ccc(OC)cc3)C(=O)N2CCc2ccc(OC)c(OC)c2)cc1 (stereo unspecified) | – | inactive: 28%
Cc1ccc(S(=O)(=O)NC(=O)NN2CCCCCC2)cc1 | – | inactive: -0.352% [at 25.6 µM]
CC(Oc1ccc(Cl)cc1Cl)C(=O)NC1=NN(c2ccccc2)C(=O)C1 (stereo unspecified) | active: 8.91 µM | –
CCN(c1ccccc1)S(=O)(=O)c1ccc(NC(=S)NC(=O)c2cccs2)cc1 | active: 25.1 µM | –
c1ccc([C@@H]2CN3CCSC3=N2)cc1 | inactive | –
CCCCCCCCCCCC1=C(O)C(=O)C=C(O)C1=O | active: 8.91 µM | –
Cc1ccc(C(=O)Nc2cccc(C(=O)NCc3ccco3)c2)cc1 | – | inactive: 34.7%
CC/C(=C(\c1ccccc1)c1ccc(OCCN(C)C)cc1)c1ccccc1 | inactive | –
CC1(C)NC(=O)N(c2ccc([N+](=O)[O-])c(C(F)(F)F)c2)C1=O | – | inactive: 1.67% [at 25.6 µM]
CC(NC(=O)CN1C(=O)COc2ccccc21)c1ccccc1 (stereo unspecified) | – | inactive: 9.04%
Nc1cc(-c2ccncc2)c[nH]c1=O | inactive | –
CCCCCCCCCCNC(=O)C(=O)Nc1ccccn1 | – | inactive: 32.9%
CCOc1ccc2c(c1)C(C)=CC(C)(C)N2 | – | inactive: -21.2%
